According to the supplement of paper PMC10600219:
Structures can show the parent of a compound that is named as a salt. Over roughly 2,800 compounds, “cell viability relative to vehicle” has its median near 1.1; the lowest 2% begin near 0.19. The list shows a part of the results.

System: NCI-H2228 parental
Test: cell viability relative to vehicle (fraction of vehicle); NCI-H2228 is an ALK-positive lung cancer line and DTP means drug-tolerant persister; higher = less growth inhibition
Settings: 100 nM; treatment time 6 days
Procedure, shortened: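 Parental NCI-H2228 cells and drug-tolerant persister cells (made with 1000 nM of a targeted drug for 13 days) were seeded in 384-well plates. The next day, the 3114-agent TargetMol anti-cancer compound library was added at 100 nM, with DMSO as vehicle. After 6 days, ATP was read with the CellTiter-Glo 3D Cell Viability Assay. Each value is cell viability relative to vehicle-treated cells.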

SMILES	cell viability
C[C@H](Cc1cc2c(c(C(N)=O)c1)N(CCCO)CC2)NCCOc1ccccc1OCC(F)(F)F [Silodosin]	1.07
C/C(=C\C(=O)Nc1ccccc1C(=O)O)c1ccc2ccccc2c1	0.98
O=C(c1ccc(/C=C/c2n[nH]c3ccccc23)cc1)N1CCNCC1	0.917
O=C(NCCN1CCOCC1)c1ccc(Cl)cc1 [Moclobemide]	1.16
COc1ccc(C[C@H](N)C(=O)N[C@H]2[C@@H](O)[C@H](n3cnc4c(N(C)C)ncnc43)O[C@@H]2CO)cc1 [Puromycin dihydrochloride]	1.04
Cc1ccnc(NS(=O)(=O)c2ccc(N)cc2)n1 [Sulfamerazine]	0.88
NCCCC(O)(P(=O)(O)O)P(=O)(O)O [Alendronate sodium hydrate]	1.01
N.N.O=C([O-])C[O-].[Pt+2] [Nedaplatin]	0.999
COC(=O)N[C@H](C(=O)N[C@@H](Cc1ccccc1)[C@@H](O)CN(Cc1ccc(-c2ccccn2)cc1)NC(=O)[C@@H](NC(=O)OC)C(C)(C)C)C(C)(C)C [Atazanavir]	0.982
COC(=O)Nc1ccc(-c2nc(N3CCOCC3)c3cnn(C4CCN(C(=O)OC)CC4)c3n2)cc1	0.854
N#CC(=Cc1cc(Cl)cc(Cl)c1)c1cccnc1	1.14
C[C@H](Cn1cnc2c(N)ncnc21)OCP(=O)(O)O [Tenofovir]	1.14
OC(CCN1CCCCC1)(c1ccccc1)C1CCCCC1 (racemic) [DL-trihexyphenidyl hydrochloride]	0.929
CCOC(=O)[C@H](CCc1ccccc1)N[C@@H](C)C(=O)N(CC(=O)O)C1Cc2ccccc2C1 [Delapril Hydrochloride]	1.12
COc1nnc2ccc(N3CCC(c4ccc(OCCN5CCN(C)C(=O)[C@H]5C)cc4)CC3)nn12.O=C(O)c1ccc2cc(O)ccc2c1 [AZD5153 6-Hydroxy-2-naphthoic acid]	0.783
C[C@H](CC(=O)C[C@@H](C)[C@H]1C[C@H](O)[C@@]2(C)C3=C(C(=O)C[C@]12C)[C@@]1(C)CCC(=O)C(C)(C)[C@@H]1C[C@@H]3O)C(=O)O [Ganoderic acid A]	0.986
N#CC(c1ccnc(OCc2ccc(CN3CCOCC3)cc2)n1)c1nc2ccccc2s1 (centres undefined)	1.05
O=c1c(O[C@@H]2O[C@H](CO)[C@@H](O)[C@H](O)[C@H]2O)c(-c2ccc(O)c(O)c2)oc2cc(O)cc(O)c12 [Isoquercitrin]	0.983
O=c1c(O[C@@H]2O[C@H](CO)[C@@H](O)[C@H](O)[C@H]2O)c(-c2ccc(O)c(O)c2)oc2cc(O)cc(O)c12	1.03
CC(C)n1c(/C=C/C(O)CC(O)CC(=O)O)c(-c2ccc(F)cc2)c2ccccc21 (centres undefined) [Fluvastatin sodium salt]	1.04
O=c1ccn([C@@H]2O[C@H](CO)[C@@H](O)[C@H]2O)c(=O)[nH]1 [Uridine]	1.14
COc1cc(/C=C2/SC(=S)NC2=O)ccc1OCC(=O)O	1.1
CC(C)(C)c1ccc(C(=O)CCCN2CCC(OC(c3ccccc3)c3ccccc3)CC2)cc1 [Ebastine]	0.967
CCn1nc(C2CCN(C(=O)CCO)CC2)nc1-c1cnc(N)c(-c2nnc(C(C)(C)C)o2)n1	1.04
O=C1CCC[C@@H]2[C@H]3CCC[N+]4([O-])CCC[C@@H](CN12)[C@@H]34 (some centres undefined) [Oxymatrine]	1

SMILES	cell viability
CS(=O)(=O)c1ccc(-c2cnc(NCc3ccco3)n3cnnc23)cc1	1.02
Cn1ccnc1 [Saccharin 1-methylimidazole (SMI)]	1.09
COc1ccc(S(=O)(=O)Nc2ccccc2C=Cc2ccncc2)cc1	0.238
Cc1c(C)c2c(c(C)c1O)CCC(C)(C(=O)O)O2 (centres undefined) [Trolox]	1.18
C[C@@H](C(=O)Nc1ccc(Cl)cc1)[C@H]1CC[C@@H](c2ccnc3ccc(F)cc32)CC1 [Linrodostat]	0.956
COc1cc(C2Oc3cc([C@H]4Oc5cc(O)cc(O)c5C(=O)[C@@H]4O)ccc3OC2CO)ccc1O (some centres undefined) [Silibinin]	1.14
O=c1[nH]c2cc(C(F)(F)F)ccc2n1-c1cc(C(F)(F)F)ccc1O	1.13
CN(C)CCn1nnnc1SCC1=C(C(=O)O)N2C(=O)[C@@H](NC(=O)Cc3csc(N)n3)[C@H]2SC1 [Cefotiam hydrochloride]	1.07
CN1CCN(c2ccc(Nc3ncc4cc(C#N)c(=O)n(C5CCCC5)c4n3)cc2)CC1	1.03
O=c1cc(-c2ccccc2)oc2cc(O)c(O)c(O)c12 [Baicalein]	0.974
CC(=O)N[C@@H](CS)C(=O)O [Acetylcysteine]	1.11
C[C@]1(c2nc3c(C(N)=O)cccc3[nH]2)CCCN1 [Veliparib]	0.865
C[C@]1(c2nc3c(C(N)=O)cccc3[nH]2)CCCN1 [Veliparib dihydrochloride]	1.18
Oc1ccccc1N=Cc1c(O)ccc2ccccc12	1.14
O=C(O)Cc1cccc(OCCCN(Cc2cccc(C(F)(F)F)c2Cl)CC(c2ccccc2)c2ccccc2)c1	1.1
COc1ccc(C=CC(=O)O)cc1OC [3,4-Dimethoxycinnamic acid]	1.02
O=C(O)c1ccc2c(c1)nc(Nc1cccc(Cl)c1)c1ccncc12 [Silmitasertib]	1.02
CCN(CC)CCOc1ccc2c(c1)C(=O)c1cc(OCCN(CC)CC)ccc1-2 [Tilorone dihydrochloride]	1
O=C(/C=C/c1ccc(O)c(O)c1)c1ccc(O)cc1O [Butein]	1.08
O=C(CCCCCCC(=O)Nc1ccccc1)NO [Vorinostat]	1.03
O=C(Cl)C(=O)c1c[nH]c2ccccc12 [Indole-3-Glyoxylyl Chloride]	1.24
COC(=O)C1=C(C)NC(C)=C(C(=O)OC2CCCN(Cc3ccccc3)C2)C1c1cccc([N+](=O)[O-])c1 (centres undefined) [Benidipine hydrochloride]	1.14
CCNC(=O)CCC/C=C\C[C@@H]1[C@@H](/C=C/[C@@H](O)CCc2ccccc2)[C@H](O)C[C@@H]1O [Bimatoprost]	1.23
COc1ccc(S(=O)(=O)Nc2cccnc2Nc2ccc(O)cc2)cc1	0.758
